Experimental data taken from the supplement of paper PMC3334620.
In all, about 33,000 sequences were measured (“E-score (-0.5 to 0.5)”: median about -0.053, highest 2% from about 0.37 on). The list shows a part of the results.

molecular target: Hap1 (UniProt P0CE41); assay: PBM E-score (8-mer binding enrichment) (E-score (-0.5 to 0.5)); higher = stronger / more preferred TF binding; most listed sequences are background and not binding sites; settings: protein concentration: 200 nM; construct: GST-DNA-binding domain
Outline: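 PURExpress in vitro transcription/translation supplied GST-tagged yeast transcription factors, either full-length or DNA-binding domain. Applied at about 100-200 nM to universal all-10-mer Agilent arrays double-stranded by primer extension, the bound protein was detected with fluorescent anti-GST. E-scores, modified Wilcoxon-Mann-Whitney statistics, were given by the Universal PBM Analysis Suite to ungapped eight-base words pooled with their reverse complements after masliner normalisation.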

Sequence of UniProt P0CE41 (P0CE41 whole entry, the tested form may be a part): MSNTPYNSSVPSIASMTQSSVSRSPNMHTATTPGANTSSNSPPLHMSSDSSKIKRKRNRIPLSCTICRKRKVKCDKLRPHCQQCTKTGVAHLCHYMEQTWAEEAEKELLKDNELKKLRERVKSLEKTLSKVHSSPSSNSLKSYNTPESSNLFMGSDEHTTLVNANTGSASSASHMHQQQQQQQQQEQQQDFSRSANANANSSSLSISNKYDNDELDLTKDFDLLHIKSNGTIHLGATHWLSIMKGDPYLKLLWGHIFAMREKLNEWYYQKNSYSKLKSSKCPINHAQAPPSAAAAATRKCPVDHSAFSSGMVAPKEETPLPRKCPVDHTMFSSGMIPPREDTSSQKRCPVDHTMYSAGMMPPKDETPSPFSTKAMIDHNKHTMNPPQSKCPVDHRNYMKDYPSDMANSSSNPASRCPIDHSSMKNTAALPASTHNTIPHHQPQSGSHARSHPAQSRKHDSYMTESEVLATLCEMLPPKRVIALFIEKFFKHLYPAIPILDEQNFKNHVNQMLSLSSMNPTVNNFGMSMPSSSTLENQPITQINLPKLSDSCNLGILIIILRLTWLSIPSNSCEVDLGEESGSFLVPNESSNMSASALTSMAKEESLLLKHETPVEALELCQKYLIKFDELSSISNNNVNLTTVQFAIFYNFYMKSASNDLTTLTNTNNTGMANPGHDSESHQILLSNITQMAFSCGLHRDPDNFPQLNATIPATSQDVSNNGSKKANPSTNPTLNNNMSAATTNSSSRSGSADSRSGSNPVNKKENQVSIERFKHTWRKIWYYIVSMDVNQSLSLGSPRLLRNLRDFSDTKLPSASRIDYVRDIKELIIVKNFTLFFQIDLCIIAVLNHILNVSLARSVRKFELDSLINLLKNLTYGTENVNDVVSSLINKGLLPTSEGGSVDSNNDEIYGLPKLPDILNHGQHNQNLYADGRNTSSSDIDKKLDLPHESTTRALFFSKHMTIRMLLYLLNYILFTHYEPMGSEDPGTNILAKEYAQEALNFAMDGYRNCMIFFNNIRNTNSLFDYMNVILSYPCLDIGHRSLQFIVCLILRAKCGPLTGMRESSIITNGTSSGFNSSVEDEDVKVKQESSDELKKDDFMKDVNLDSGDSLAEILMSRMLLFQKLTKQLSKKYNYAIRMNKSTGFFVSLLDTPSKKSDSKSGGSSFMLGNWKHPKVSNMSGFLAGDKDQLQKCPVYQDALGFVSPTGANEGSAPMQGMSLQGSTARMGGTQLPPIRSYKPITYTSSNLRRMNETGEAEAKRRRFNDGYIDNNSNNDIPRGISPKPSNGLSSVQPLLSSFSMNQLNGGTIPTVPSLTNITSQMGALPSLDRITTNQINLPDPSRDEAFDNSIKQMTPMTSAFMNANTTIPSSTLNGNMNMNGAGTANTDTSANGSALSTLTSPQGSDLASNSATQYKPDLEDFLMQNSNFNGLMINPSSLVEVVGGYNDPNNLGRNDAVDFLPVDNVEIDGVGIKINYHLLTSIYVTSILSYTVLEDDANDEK

Point of comparison: AATGACAG, “PBM E-score” value -0.303. Against it:
- ACATGAGT — higher, -0.184
- ACTTGAGC — higher, -0.261
- GATTTTAC — higher, 0.0282
- AATTCCTC — higher, -0.00391
- CCTATATC — higher, 0.00156
- GTCGTGGA — higher, -0.0505
- AATGACTC — higher, -0.24
- GTAACTAA — higher, 0.0966
- CGGGTGCA — higher, 0.224
- CAATGGCC — higher, -0.00636
- CAGTGGGC — higher, -0.136
- GACATCAC — higher, 0.0762
- CCCCTGCA — higher, -0.218
- CTAGGCAA — higher, -0.128
- ATACATTC — higher, -0.19
- GACTTGCC — higher, -0.148
- ACAAGAGA — higher, -0.0005
- CTCTGTCC — higher, 0.00047
- CATCACGA — lower, -0.398
- CATATTGA — lower, -0.355
- AGCCCGGA — higher, 0.39
- CAAACGCA — higher, -0.209
- CATTGGAG — higher, -0.0139
- CATCTAAC — higher, -0.0126
- CGGTGCTA — higher, 0.323
- CCATGTCC — higher, 0.0819
- CTGGGTCC — higher, -0.0646
- AATGTCGT — higher, -0.133
- GGCCGCAA — higher, 0.175
- CGAACGTA — higher, -0.0484
- ACGGACCC — higher, 0.278
- AGAGACAC — higher, -0.123
- ACGTAAAT — higher, -0.00539
- GCGAACCC — higher, 0.107
- AGAAAACT — higher, -0.283
- CGTTAGAA — higher, 0.032
- ACTTCCTA — higher, -0.127
- ACACTAAA — higher, -0.0992
- AGCGCGTC — higher, -0.168
- GCAGCACC — higher, -0.0891
- ATATAGGC — higher, 0.144
- ACCGAAAA — higher, 0.26
- CAACAAGC — higher, -0.11
- AACCTTAA — higher, 0.139
- GGGGCTAA — higher, 0.154
- GGGTGCTA — higher, -0.0463
- TGATTTAA — higher, 0.0921
- AAAGTCTC — higher, -0.119
- GCAATTGC — higher, -0.0502
- ACAGCGAG — higher, -0.0158
- CCACGTGA — higher, -0.141
- TCTGAGCA — higher, -0.181
- ACCCTATC — higher, -0.0105
- GAGACGTA — higher, -0.0894
- ATTTGGAG — higher, -0.114
- ACATTAAA — higher, -0.138
- CCTGTATA — higher, -0.0951
- CGTACTCC — higher, 0.131
- CCTATTTC — higher, 0.0752
- ACCGATCG — higher, 0.256
- AGTCATAT — higher, -0.0572
- CGACAGGA — higher, 0.217
- AAGCTTAG — higher, -0.214
- ACACTACC — higher, -0.159
- TACCTCCA — higher, -0.176
- AGTGCTAA — higher, 0.0956
- GTCAGCCA — higher, -0.237
- AGGGATTG — higher, -0.114
- GCGCGGTA — higher, 0.21
- CAACCCTG — higher, -0.208
- ACCTACGT — higher, 0.00887
- GGGACTTA — higher, 0.0397
- CTACGAAG — lower, -0.337
- ATCGCACA — higher, -0.0777
- GCGCATGA — higher, -0.162
- CATGCACA — higher, -0.199
- AACGTGGG — higher, -0.199
- CCTCTCGA — higher, -0.281
- ATGCTCTG — higher, -0.198
- AGCATCCG — higher, 0.215
- CAATGTTC — higher, 0.0787
- GGATTGTA — higher, 0.0837
- ACGGCGCC — higher, 0.13
- CATCTGGA — higher, 0.151
- CCGGCGTA — higher, 0.315
- GATTTTTA — higher, 0.088
- CCTTCGAG — higher, 0.00318
- AACGTGCA — higher, -0.213
- GATAGCCC — higher, 0.0238
- AGCACTAG — higher, -0.2
- GTTCATCA — higher, -0.151
- CTGATATA — higher, -0.00394
- GCAGATAC — higher, 0.029
- CTGCGAAA — higher, -0.217
- CGATCACC — higher, 0.106
- ACGACTCT — higher, -0.256
- AGCTGACT — higher, -0.127
- CTGTAGTA — higher, -0.0711
- GACTACCA — higher, -0.143
- CCGGGTAA — higher, 0.342
- GAGGCTGC — higher, -0.183
- CGAGCCCC — higher, 0.114
- CGATACCA — higher, 0.0846
- ACATTCTA — higher, -0.136
- AACCGTGC — higher, -0.0215
- CCAATAGA — higher, -0.15
- CGGTAGCC — higher, 0.143
- CTGACTAA — higher, -0.0139
